# Source: article PMC4336329 (PLoS ONE, 2015)
# In all, about 310,000 compounds went through this assay and about 14,000 (4.5%) showed an effect of 50% or more. The effect is printed as a negative number. This is one part of the list.
# Molecular target: human ether-à-go-go-related gene (hERG) potassium channel (human, UniProt Q12809)
# Assay: primary screen, population patch clamp on CHO cells stably expressing hERG
# 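Note: peak tail current of the secondary pulse compared with the same well before compound.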
# human ether-à-go-go-related gene (hERG) potassium channel, sequence (Q12809 whole entry, looked up): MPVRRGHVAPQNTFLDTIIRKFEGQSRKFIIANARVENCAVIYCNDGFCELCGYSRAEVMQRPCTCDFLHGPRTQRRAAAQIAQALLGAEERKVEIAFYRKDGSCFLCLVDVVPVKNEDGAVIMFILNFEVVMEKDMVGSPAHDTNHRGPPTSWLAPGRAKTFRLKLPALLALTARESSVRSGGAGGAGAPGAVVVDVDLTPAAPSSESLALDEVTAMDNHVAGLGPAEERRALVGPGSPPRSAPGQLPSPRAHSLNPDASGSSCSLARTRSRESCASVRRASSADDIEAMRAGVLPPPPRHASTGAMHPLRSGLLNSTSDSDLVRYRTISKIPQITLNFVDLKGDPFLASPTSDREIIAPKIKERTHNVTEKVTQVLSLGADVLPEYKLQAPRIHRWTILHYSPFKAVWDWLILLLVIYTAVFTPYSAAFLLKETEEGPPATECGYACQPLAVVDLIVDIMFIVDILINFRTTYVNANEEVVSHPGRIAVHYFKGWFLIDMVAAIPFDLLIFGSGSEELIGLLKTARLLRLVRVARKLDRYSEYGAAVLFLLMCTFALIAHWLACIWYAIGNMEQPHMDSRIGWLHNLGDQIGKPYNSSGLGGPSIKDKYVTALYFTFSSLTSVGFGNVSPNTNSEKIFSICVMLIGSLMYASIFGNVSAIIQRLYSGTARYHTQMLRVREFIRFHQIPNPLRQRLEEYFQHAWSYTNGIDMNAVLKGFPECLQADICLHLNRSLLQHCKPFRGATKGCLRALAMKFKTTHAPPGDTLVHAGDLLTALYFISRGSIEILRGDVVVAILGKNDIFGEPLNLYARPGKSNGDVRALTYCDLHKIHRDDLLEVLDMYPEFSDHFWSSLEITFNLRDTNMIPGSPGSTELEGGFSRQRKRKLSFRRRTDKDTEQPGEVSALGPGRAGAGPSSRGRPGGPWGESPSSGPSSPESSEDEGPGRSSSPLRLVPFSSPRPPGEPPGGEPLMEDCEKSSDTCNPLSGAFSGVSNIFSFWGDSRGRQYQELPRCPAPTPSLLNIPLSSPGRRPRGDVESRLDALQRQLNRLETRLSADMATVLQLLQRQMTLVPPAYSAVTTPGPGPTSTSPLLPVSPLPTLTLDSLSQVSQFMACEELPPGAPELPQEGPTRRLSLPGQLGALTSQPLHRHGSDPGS
row,SMILES,"hERG current change (%, negative = inhibition) at 10uM [%]"
1,Cc1nn(-c2ccccn2)c2c1-c1nc(N3CCOCC3)ncc1CC2,-15
2,O=C(CNc1ccc(C(F)(F)F)cc1)Nc1cccc(S(=O)(=O)N2CCCC2)c1,-5.15
3,COC(=O)C1=C(C(C)=O)C(c2ccc(C)cc2)n2nnnc2N1 (stereo not drawn),-2.26
4,CCCCn1c(SCC(=O)N2CCCCC2)nc2cc(S(N)(=O)=O)ccc21,-7.5
5,COc1cccc(NC(=S)N(CCC(C)C)C2CCN(C(C)=O)CC2)c1,6.13
6,C/C(=N\NC(=O)Cc1ccc(F)cc1)c1ccc(F)cc1,-7.92
7,CCOC(=O)C(=CNc1cccc(C)n1)C(=O)OCC,-4.42
8,CC(=O)c1cccc(OCc2cc(C(=O)NCc3nc(C)c(C)s3)no2)c1,8.4
9,COc1ccc(S(=O)(=O)N2CCN(C(=O)c3cccc(Cl)c3)CC2)cc1,-38.2
10,CCCCn1c(SCc2nc(N)nc(Nc3ccccc3C)n2)nc2ccccc2c1=O,-1.63
11,COc1ccc(C(c2sc3nc(C)nn3c2O)N2CCc3ccccc3C2)cc1 (stereo not drawn),7.26
12,O=C(NCCc1nc2ccccc2[nH]1)c1ccco1,2.94
13,CC(=O)C1=C(C)Nc2cc(C(F)(F)F)ccc2S1,7.12
14,CCN(CC)C(=O)CSc1nnc2nnc3cc(Cl)ccc3n12,-6.44
15,Fc1ccc(CSc2nnc(CN3CCOCC3)n2-c2ccccc2)c(Cl)c1,-24
16,COc1ccccc1C(C)NC(=O)C1CCN(S(=O)(=O)c2cccs2)CC1 (stereo not drawn),-5.22
17,O=C(O)COc1ccc2c(c1)O/C(=C\c1ccco1)C2=O,20
18,CCOc1ccc(N2C(=O)/C(=C/c3ccccn3)SC2=S)cc1,-0.388
19,CCn1cc(C2C(C(=O)Nc3ccc(Br)cn3)=C(C)NC3=C2C(=O)CCC3)c(C)n1 (stereo not drawn),-3.93
20,CCC(=O)Nc1ccc(C(=O)Nc2ccc3c(c2)OCO3)cc1,16.1
21,O=c1oc2ccccc2c2c1C(O)CO2 (stereo not drawn),33.2
22,Cc1nc(C(=O)NNC(=O)c2c(-c3c(Cl)cccc3Cl)noc2C)cs1,-10.7

row,SMILES,"hERG current change (%, negative = inhibition) at 10uM [%]"
1,Cc1ccc2c(Cl)c(C(=O)Nc3cccnc3)sc2c1,14.2
2,Cc1ccc(CS(=O)Cc2ccc(C(=O)N3CCN(C4CCCCC4)CC3)o2)cc1 (stereo not drawn),10
3,Cc1ccc(C)c(C(=O)c2c(C)nc3sccn23)c1,-20.8
4,CCOc1ccccc1N1CCN(C(=O)c2cn(CC3CCCCC3)nn2)CC1,-9.95
5,C#CCN1C(=O)C(O)(CC(=O)c2ccc(OC)c(OC)c2)c2ccccc21 (stereo not drawn),-13.7
6,Cc1cc(C)n2nc(SCC(=O)N(Cc3ccccc3)C3CCS(=O)(=O)C3)nc2n1 (stereo not drawn),24.2
7,COc1cccc(C=O)c1OCCCOc1cccc2cccnc12,-24.9
8,CSc1nnc(-c2ccc(C(F)(F)F)nc2C)o1,5.39
9,CCOc1ccccc1NC(=O)Cc1ccccc1OC,-12.1
10,CCOc1cccc(C2/C(=C(/O)c3ccc4c(c3)CC(C)O4)C(=O)C(=O)N2CCN2CCOCC2)c1 (stereo not drawn),14.7
11,O=c1c2ccccc2nc(SCc2ccccc2F)n1C1CCCC1,0.737
12,Cc1ccc(Cn2c(=O)c3ccccc3n3c(SCC(=O)N4CCCCC4C)nnc23)cc1 (stereo not drawn),-42.4
13,CCOc1ccc(OCC)c(NC(=O)C2COc3ccccc3O2)c1 (stereo not drawn),10.7
14,O=C1N(c2ccccc2)C2CS(=O)(=O)CC2N1c1ccc(Cl)c(Cl)c1 (stereo not drawn),7.77
15,Cc1ccc(CNC(=O)c2ccc(N3CCC4(CC3)CC(c3ccccc3)=NO4)c(NC(=O)c3ccco3)c2)cc1,6.09
16,C=CCc1ccc(OCC(O)CO)c(OC)c1 (stereo not drawn),11.6
17,COc1ccccc1/C=C1\Cc2ccccc2C1=O,7.73
18,Nc1nonc1/C(=N/O)N1CCN(CCO)CC1,8.45
19,COC(=O)COc1cc2ccccc2cc1C(=O)Nc1ccccc1,0.225
20,Cc1ccc(Cn2ccc(NC(=O)c3cc(C)on3)n2)cc1,5.54
21,CCc1nnc(N/N=C/c2ccc(O)c(OC)c2)n1N,29.9
22,Cc1ccc2oc(=O)c3cc(C(=O)NCCCN4CCN(C)CC4)sc3c2c1,-5.62

row,SMILES,"hERG current change (%, negative = inhibition) at 10uM [%]"
1,COc1ccc(C(=O)Nc2ccccc2C(=O)Nc2cccnc2)cc1,-16
2,COc1ccc(/C=C/c2c([N+](=O)[O-])c(=O)n(C)c(=O)n2C)cc1O,-5.4
3,O=C(CCN1C(=O)/C(=C/c2ccccc2Cl)SC1=S)NC1=NCCS1,9.76
4,Cc1ccc(CNC(=O)CN2C(=O)CSc3ccc(S(=O)(=O)N4CCC(C)CC4)cc32)cc1,-27.4
5,Cc1ccc(C2=NOC(=O)/C2=C\c2ccc(C)o2)cc1,6.75
6,CC(=O)c1ccc(NC(=O)C2CCCN2S(=O)(=O)c2ccc(F)cc2)cc1 (stereo not drawn),-16.6
7,Cc1ccc(NC(=O)C2C3CCCC2C3c2ccccc2)c(C)c1 (stereo not drawn),9.74
8,CN1CCN(c2ccccc2NC(=O)c2cc3c(s2)-c2ccccc2OC3)CC1,-51.3
9,COc1ccc(C(CNC(=O)c2ccc(S(=O)(=O)Nc3ccccc3C)cc2)N2CCOCC2)cc1 (stereo not drawn),-23.2
10,COC(=O)c1cc(/C=C/c2ccccc2)[nH]n1,-19.2
11,COc1ccc(C(=O)N=C2SC3CS(=O)(=O)CC3N2Cc2ccc(OC)c(OC)c2)cc1 (stereo not drawn),-7.39
12,Cc1cc(C)n(-c2ccc(C(=O)Nc3nnc(C4CC4)s3)cc2)n1,-3.27
13,CC(=O)Nc1ccccc1C(=O)N1CCN(Cc2ccc3c(c2)OCO3)CC1,8.13
14,COCCC(=O)N1CCC(Oc2ccc(C(=O)NCc3csc(C)n3)cc2)CC1,12.6
15,CCO.Nc1nc(N)c2cc(Sc3ccc4ccccc4c3)ccc2n1,-24.4
16,COc1ccc(-n2c(=S)[nH]c3cc(C(=O)NCCCN4CCOCC4)ccc3c2=O)cc1OC,25.7
17,CC(CCc1ccccc1)NC(=O)CCNC(=O)Cn1ccc2ccccc2c1=O (stereo not drawn),18.5
18,COc1ccccc1CNC(=O)[C@H](C)NC(=O)C1CCN(C(=O)[C@@H](N)CC(C)C)CC1,-1.07
19,CCN1C[C@]2(COC)CC[C@H](OC)[C@@]34C5C[C@H]6C(=O)C5[C@](O)(C[C@H]6OC)[C@@](O)(C(OC)C23)[C@@H]14 (stereo partly drawn),8.94
20,CCc1ccc(N(C2C=CS(=O)(=O)C2)S(=O)(=O)c2ccc(C)cc2)cc1 (stereo not drawn),-19.1
21,Cc1ccc(Cn2c(C(C)Nc3nc(-c4ccc(F)cc4)cs3)nc3cc(Cl)c(Cl)cc32)cc1 (stereo not drawn),10.3
22,FC(F)(F)c1cccc(NC(=S)N2CCN(c3ccccn3)CC2)c1,12.3

row,SMILES,"hERG current change (%, negative = inhibition) at 10uM [%]"
1,COc1ccc(NC(=S)N2CCC(C(O)(c3ccccc3)c3ccccc3)CC2)cc1,3.75
2,COC(=O)c1cc2c(C)nn(C)c2s1,-4.74
3,Cc1ccc2c(c1)N(C(=O)CCC(=O)NCCCN1CCN(C)CC1)CCO2,-5.06
4,COc1cc(C2NC(=S)NC(c3ccccc3)=C2C(C)=O)ccc1O (stereo not drawn),15.4
5,O=Cc1ccc(OCc2ccc3c(c2)OCO3)cc1,14.9
6,Cn1nc(C(=O)NCCCN2CCCCC2)c2c1-c1ccccc1S(=O)(=O)C2,-0.878
7,COCCN=C1NC(=O)C(CC(=O)Nc2cccc(Cl)c2C)S1 (stereo not drawn),6.67
8,Cc1cc(=O)oc2cc(OCC3CC(c4ccc(Cl)cc4)=NO3)ccc12 (stereo not drawn),-2.25
9,CCC(CC)c1nnc(NC(=O)CS(=O)(=O)c2ccccc2)s1,4.38
10,O=C(NCCc1ccccc1)c1cccc(Br)c1,2.53
11,O=[N+]([O-])c1ccc(NCc2ccccc2)c2nonc12,19.7
12,Cc1csc2nc(SCC(=O)N3CCN(c4ccccc4)CC3)[nH]c(=O)c12,1.04
13,CCCOC(=O)c1ccc(Oc2c(-c3ccc(OCC)cc3O)n[nH]c2C)cc1,19.3
14,COc1ccccc1CCNC(=O)Cn1c(=O)oc2ccccc21,11.8
15,COc1ccc(CNC(=O)C[C@H]2C(=O)N(Cc3ccc(OC)cc3)C[C@@H]2Cc2ccccc2)cc1,-45.9
16,CCOC(=O)C1CCCN(C(=O)Cc2ccc(Cl)cc2)C1 (stereo not drawn),6.9
17,COc1cccc(CC(=O)N2CCCC(CCC(=O)N3CCN(c4ccccn4)CC3)C2)c1 (stereo not drawn),-41.3
18,O=C(NCC(=O)N1CCOCC1)OCc1ccccc1,-30.8
19,COc1ccccc1NC(=O)c1c(C)nc2ccccc2c1C(=O)O,2.78
20,O=C(Nc1ccnn1C1CCN(Cc2cc(Cl)ccc2O)CC1)C1CC1,-55
21,O=C(NC1CCc2ccccc21)C12CN(Cc3ccccc3)CC1C(c1cccc([N+](=O)[O-])c1)=NO2 (stereo not drawn),-1.84
